{"source": "the RNAGym collection of RNA variant scans (doi:10.7554/elife.90254)", "parents": {"B1": {"name": "LINE1-mini (parent)", "chain": "GGCAGAGCUCAACACAGCGUGGCAAAGUGGCUGUGGCUAGACUGCC"}}, "note": "The source gives no read counts; variants with many changes may rest on few reads."}
{"variants_of": "B1", "assay": "self-cleavage, relative activity (ratio to wild type); higher = more cleavage; in vitro, sequencing; the parent is a self-cleaving ribozyme"}
{"variant": "A6C U9C G40C C42A G44A C45G", "self-cleavage": 0}
{"variant": "A12G G40U C46G", "self-cleavage": 0.01}
{"variant": "C10U C18U A25U", "self-cleavage": 0.28}
{"variant": "A11G A26C C37U", "self-cleavage": 0.02}
{"variant": "U9G A26C U43C", "self-cleavage": 0.02}
{"variant": "G5A C13G A24U", "self-cleavage": 0}
{"variant": "A12C C31U G40C", "self-cleavage": 0}
{"variant": "A4C A12G G27U", "self-cleavage": 0.06}
{"variant": "C3A G19C G22U", "self-cleavage": 0.21}
{"variant": "G1C U38C G44A", "self-cleavage": 0.02}
{"variant": "A14U G27A G35A C37A", "self-cleavage": 0.09}
{"variant": "C3G C13U U20A C46A", "self-cleavage": 0.07}
{"variant": "G5U A6U G40U", "self-cleavage": 0}
{"variant": "A16C G27A G29U C31U C37U A41G", "self-cleavage": 0.06}
{"variant": "A4U C18G A39G G40U", "self-cleavage": 0.42}
{"variant": "G5A C10A C18U G35A", "self-cleavage": 0.03}
{"variant": "C3A A6U A39U", "self-cleavage": 0.55}
{"variant": "G33U G36A U38G C42G", "self-cleavage": 0.03}
{"variant": "G2U U9A C31U C42A G44U", "self-cleavage": 0.01}
{"variant": "A4C C8A A14U A16G C45U", "self-cleavage": 0.13}
{"variant": "A11U G33U G40U", "self-cleavage": 0.04}
{"variant": "A25C G40U C45G", "self-cleavage": 0.02}
{"variant": "C8G A12U C45G", "self-cleavage": 0.01}
{"variant": "C10U U20A G36U", "self-cleavage": 0.01}
{"variant": "C8U U9C C31U A39C", "self-cleavage": 0.03}
{"variant": "C13G G36A A41G", "self-cleavage": 0.02}
{"variant": "A26G C31G A41U", "self-cleavage": 0.06}
{"variant": "G1U C3U A4G C10G A11U", "self-cleavage": 0.03}
{"variant": "C13U C18U A26U C46U", "self-cleavage": 0.03}
{"variant": "G1U A4G G21C G22U G40U C46G", "self-cleavage": 0.04}
{"variant": "G2A G7U A39G", "self-cleavage": 0.72}
{"variant": "C18G A25C U32G U34C", "self-cleavage": 0.03}
{"variant": "C13A G17U U34C", "self-cleavage": 0.21}
{"variant": "G2C C15U C18U G36C", "self-cleavage": 0.03}
{"variant": "C8A C13U U43G", "self-cleavage": 0.29}
{"variant": "G2U G7C C42A C46U", "self-cleavage": 0.1}
{"variant": "C13A G22U G30A C31U G33A", "self-cleavage": 0.03}
{"variant": "G2U C8U C31G G33C A39U", "self-cleavage": 0.01}
{"variant": "C3U C15G G29U", "self-cleavage": 0.03}
{"variant": "A25C U32A U34C", "self-cleavage": 0.03}
{"variant": "A4U C23A A25G G35U C46A", "self-cleavage": 0.09}
{"variant": "A11U C23G C46A", "self-cleavage": 0.09}
{"variant": "G1A G17U C23U A26G", "self-cleavage": 0.08}
{"variant": "C18U A25U U43A", "self-cleavage": 0.02}
{"variant": "A4U G17A A24C G36U", "self-cleavage": 0.02}
{"variant": "G2U C10A C23U G40C", "self-cleavage": 0}
{"variant": "G30U U38G U43A", "self-cleavage": 0.02}
{"variant": "A16C C18U G19A A26G U32G", "self-cleavage": 0.5}
{"variant": "A6C A14G G21A G29U G30C", "self-cleavage": 0.01}
{"variant": "C3A A14G C31A", "self-cleavage": 0.16}
{"variant": "G5C A14G U20A G33U C42A", "self-cleavage": 0.21}
{"variant": "C3U A16U U38G", "self-cleavage": 0.09}
{"variant": "G7C G21A G29U C31A U32A G40C", "self-cleavage": 0.04}
{"variant": "G2C G7A C10G C13U A16U C42U U43G", "self-cleavage": 0.01}
{"variant": "C3U G17A A41U G44C", "self-cleavage": 0.07}
{"variant": "G2C C10A G22A G36A", "self-cleavage": 0.02}
{"variant": "A24G A25C C46U", "self-cleavage": 0.71}
{"variant": "A4U C15A G19U A24U A25C G30C G36U", "self-cleavage": 0}
{"variant": "G2C A16G G19U C37U", "self-cleavage": 0.02}
{"variant": "U9A C18A U28C G30U", "self-cleavage": 0.07}
{"variant": "C10U C13A C23A", "self-cleavage": 0.04}
{"variant": "C3A U28C A39G C45U", "self-cleavage": 0.03}
{"variant": "G5A A16G G17U G36U", "self-cleavage": 0.07}
{"variant": "G1U G27C G29C G35U", "self-cleavage": 0}
{"variant": "G1A A6C U9G G44C C46A", "self-cleavage": 0.01}
{"variant": "G7U C10U G19U A26G U28G G29A", "self-cleavage": 0.01}
{"variant": "G5A G21A C23U C31A", "self-cleavage": 0.1}
{"variant": "C10U A11U A26U C31A", "self-cleavage": 0.04}
{"variant": "A16U G22A G40C C46G", "self-cleavage": 0.05}
{"variant": "G22A G33U G36U", "self-cleavage": 0.04}
{"variant": "G19C G30U C31G", "self-cleavage": 0.09}
{"variant": "G21U A25C G29A", "self-cleavage": 0.6}
{"variant": "A4C G19U U34A", "self-cleavage": 0.03}
{"variant": "C13A A16C A24C G33C", "self-cleavage": 0.01}
{"variant": "G7U U9A C13G A14U U20C", "self-cleavage": 0.36}
{"variant": "G2A A11G C23A G40C C45G", "self-cleavage": 0.01}
{"variant": "G2U G7C A25U U32G", "self-cleavage": 0.02}
{"variant": "C3U U34A U38G", "self-cleavage": 0.01}
{"variant": "U28A U32A C37G A41G U43G", "self-cleavage": 0}
{"variant": "C3A G33C C37U", "self-cleavage": 0.1}
{"variant": "C8G C23A A25G U28C G29U C37U G40A", "self-cleavage": 0.04}
{"variant": "G2U C3A C8U", "self-cleavage": 0.26}
{"variant": "C3G A6C C18G U34C", "self-cleavage": 0.09}
